Data reported in PubChem BioAssay (Tox21).
Inconclusive means that the source gave no clear call. Such entries were picked first, then a sample of the others. For some of these results: Where the call is inconclusive, the potency comes from a doubtful curve fit. Active and inactive are the calls of the source. Unless noted, calls follow the shape of the dose curve; as a rule, active = well fitted curve in the direction sought with a large enough effect in the repeat runs; inconclusive = weak or mixed curves; inactive = no such curve, though single readings can be large; an effect the other way counts as inactive or inconclusive.

Legend:
[1] = target: Peroxisome proliferator-activated receptor delta (Homo sapiens) (UniProt Q03181); test: qHTS assay to identify small molecule agonists of the peroxisome proliferator-activated receptor delta (PPARd) signaling pathway (AID 743212; calls by dose curve; as to activation: % is scaled to controls: 0 for no effect and ±100 for the full control effect); conditions: HEK293H PPARd-UAS-bla, beta-lactamase FRET ratio, 17 h; activation: at 62.6 µM (top of the series) unless noted
Procedure, shortened: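 GeneBLAzer UAS-bla HEK293H cells carrying a PPARδ construct were exposed to compounds at 37 °C. Beta-lactamase activity was read by FRET fluorescence after 2 h at room temperature with LiveBLAzer B/G substrate.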

[2] = target: Peroxisome proliferator-activated receptor delta (Homo sapiens) (UniProt Q03181); test: qHTS assay to identify small molecule antagonists of the peroxisome proliferator-activated receptor delta (PPARd) signaling pathway (AID 743215; active = well fitted inhibition curve with a large enough effect in the signal ratio in the repeat runs, not every such curve was filed as active; inconclusive = weak or mixed curves, or effect the other way; inactive = no such curve, though single readings can be large or run the other way; the % refers to the signal ratio;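 also: cells stimulated with agonist L165041 at 300 nM final during compound exposure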; as to ratio activity, negative = inhibition: % is scaled to controls: 0 for no effect and ±100 for the full control effect); conditions: HEK293H PPARd-UAS-bla, beta-lactamase FRET ratio, antagonist, 17 h; ratio activity, negative = inhibition: at 62 µM (top of the series) unless noted
Procedure, shortened: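 Antagonist-mode beta-lactamase reporter screen: HEK293H cells with UAS-bla under PPARd control, stimulated by 300 nM L165041 (final) alongside test compound for 17 h at 37 C, then FRET fluorescence after 2 h substrate incubation.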

[3] = qHTS assay to identify small molecule antagonists of the farnesoid-X-receptor (FXR) signaling pathway - cell viability counter screen (AID 743221; active = well fitted cell-killing curve with a large enough effect in the repeat runs, not every such curve was filed as active; inconclusive = weak or mixed curves, or effect the other way; inactive = no such curve, though single readings can be large or run the other way; also: nearly all actives have a fitted effect of over 50% in size; as to activity change, negative = cytotoxicity: % is scaled to controls: 0 for no effect and ±100 for the full control effect); conditions: FXR-bla HEK293T viability, CellTiter-Glo luminescence, 16 h; activity change, negative = cytotoxicity: at 62.6 µM (top of the series)
Procedure, shortened: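 GeneBLAzer FXR-UAS-bla HEK 293T cells, compound plus chenodeoxycholic acid (50 uM final), 16 h at 37 C. CellTiter-Glo added to the same wells after the beta-lactamase read; luminescence read after 30 min at room temperature as viability.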

[4] = target: Vitamin D3 receptor (Homo sapiens) (UniProt P11473); test: qHTS assay to identify small molecule antagonists of the vitamin D receptor (VDR) signaling pathway (AID 743223; active = well fitted inhibition curve with a large enough effect in the signal ratio in the repeat runs, not every such curve was filed as active; inconclusive = weak or mixed curves, or effect the other way; inactive = no such curve, though single readings can be large or run the other way; the % refers to the signal ratio; as to activity change, negative = inhibition: % is scaled to controls: 0 for no effect and ±100 for the full control effect); conditions: VDR-UAS-bla HEK293T, beta-lactamase FRET ratio, 16 h; activity change, negative = inhibition: at 61 µM (top of the series) unless noted
Procedure, shortened: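 VDR-bla cells were treated with compound plus 3 nM final 1alpha,25-dihydroxyvitamin D3 for 16 h at 37C. Beta-lactamase reporter read by B/G FRET substrate fluorescence after 2 h at room temperature. qHTS format.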

[5] = qHTS assay to identify small molecule agonists of the endoplasmic reticulum stress response signaling pathway (AID 1159516; active = well fitted activation curve with a large enough effect in the signal ratio in the repeat runs, not every such curve was filed as active; inconclusive = weak or mixed curves, or effect the other way; the % refers to the signal ratio); conditions: ESRE-bla HeLa, ER stress beta-lactamase reporter, 5 h; activation: at 61 µM (top of the series) unless noted
Procedure, shortened: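 ER stress element reporter (bla) in HeLa. 1,500 cells/well, overnight attachment; 5 hr compound; 2 hr RT substrate; dual-emission fluorescence.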

[6] = target: Nuclear receptor ROR-gamma (Homo sapiens) (UniProt P51449); test: qHTS assay to identify small molecule antagonists of the retinoid-related orphan receptor gamma (ROR-gamma) signaling pathway (AID 1159521; also: nearly all actives have a fitted effect of over 50% in size)
Procedure, shortened: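 Tet-on ROR-gamma CHO cells with ROR response element-luciferase reporter; compounds added 2 hr before 1 uM doxycycline induction, then 16 hr at 37 C. Antagonism scored as decreased ONE-Glo luminescence.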

[7] = qHTS assay to identify small molecule agonists of the AP-1 signaling pathway (AID 1159526; calls by dose curve); conditions: ME-180 (cervical carcinoma) AP-1-bla reporter, beta-lactamase FRET ratio, 5 h; activation: at 76.8 µM (top of the series) unless noted
[8] = target: Retinoic acid receptor RXR-alpha (Homo sapiens) (UniProt P19793); test: qHTS assay to identify small molecule agonists of the RXR signaling pathway (AID 1159527; calls by dose curve; also: nearly all actives have a fitted effect of over 35% in size); conditions: HEK293T RXRa-UAS-bla, beta-lactamase ratio, 16 h; activation: at 76.8 µM (top of the series) unless noted
Procedure, shortened: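 GeneBLAzer RXR-alpha-UAS-bla HEK 293T cells in 2% charcoal-stripped FBS medium were exposed to compounds for 16 hr at 37 C in agonist mode. Beta-lactamase reporter read as 460/530 nm FRET ratio after 2 hr substrate loading.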

[9] = qHTS assay to identify small molecule antagonists of the peroxisome proliferator-activated receptor delta (PPARd) signaling pathway - cell viability counter screen (AID 743213); conditions: PPARd-bla HEK293H viability, CellTiter-Glo luminescence, 17 h; viability change, negative = cytotoxic: at 62 µM (top of the series) unless noted; also: nearly all actives have a fitted effect of over 50% in size
Procedure, shortened: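 In this counter screen, HEK293H cells carrying a UAS-beta-lactamase reporter are co-treated with test compounds and 300 nM L165041 (final) for 17 h at 37 C; cell viability is quantified by CellTiter-Glo luminescence.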

[10] = qHTS assay to identify small molecule agonists of the farnesoid-X-receptor (FXR) signaling pathway - cell viability counter screen (AID 743218); conditions: FXR-bla HEK293T viability, CellTiter-Glo luminescence, 16 h; viability change, negative = cytotoxic: at 62.6 µM (top of the series) unless noted; also: nearly all actives have a fitted effect of over 45% in size
Procedure, shortened: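 In GeneBLAzer FXR-UAS-bla HEK 293T cells, compounds act for 16 h at 37 C. Cell viability is then scored in the reporter wells by CellTiter-Glo, 30 min at RT, luminescence.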

[11] = target: Vitamin D3 receptor (Homo sapiens) (UniProt P11473); test: qHTS assay to identify small molecule agonists of the vitamin D receptor (VDR) signaling pathway (AID 743222; calls by dose curve); conditions: HEK293T VDR-UAS-bla, beta-lactamase FRET ratio, 16 h; activation: at 63.5 µM (top of the series) unless noted
Procedure, shortened: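 Agonist activity measured in VDR-bla reporter cells. Exposure 16 h, 37C, 5% CO2; detection by B/G FRET substrate, 2 h RT.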

[12] = qHTS assay to identify small molecule agonists of the vitamin D receptor (VDR) signaling pathway - cell viability counter screen (AID 743224); conditions: VDR-bla HEK293T viability, CellTiter-Glo luminescence, 16 h; activity change, negative = cytotoxicity: at 62.6 µM (top of the series); also: nearly all actives have a fitted effect of over 50% in size
Procedure, shortened: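 VDR-bla cell line, quantitative HTS format; 16 h compound incubation (37C, 5% CO2); ATP-based CellTiter-Glo luminescence measured in the reporter assay wells.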

[13] = qHTS assay to identify small molecule antagonists of the vitamin D receptor (VDR) signaling pathway - cell viability counter screen (AID 743225); conditions: VDR-bla HEK293T viability, CellTiter-Glo luminescence, 16 h; viability change, negative = cytotoxic: at 61 µM (top of the series) unless noted; also: nearly all actives have a fitted effect of over 50% in size
Procedure, shortened: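 VDR-UAS-bla HEK 293T cells were plated and incubated 4 h at 37C, then dosed with compound plus 3 nM (final) 1-alpha,25-dihydroxyvitamin D3 for 16 h. After the 2 h beta-lactamase read, viability in the same wells was read as CellTiter-Glo luminescence after 30 min at room temperature.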

[14] = qHTS assay to identify small molecule agonists of the RXR signaling pathway - cell viability counter screen (AID 1159529); also: nearly all actives have a fitted effect of over 50% in size
Procedure, shortened: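 RXR-alpha-UAS-bla HEK 293T cells in medium with 2% charcoal-stripped FBS were pre-incubated 5 hr, then compound-treated 16 hr at 37 C. Viability was read by CellTiter-Glo luminescence in the same wells as the beta-lactamase assay, with tetraoctyl ammonium bromide as positive control.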
Potency is read from the fitted curve at half-maximal effect; tags tell the direction and shape of the fitted curve or compound fluorescence and quenching.

UniProt P11473, sequence (P11473 whole entry, looked up): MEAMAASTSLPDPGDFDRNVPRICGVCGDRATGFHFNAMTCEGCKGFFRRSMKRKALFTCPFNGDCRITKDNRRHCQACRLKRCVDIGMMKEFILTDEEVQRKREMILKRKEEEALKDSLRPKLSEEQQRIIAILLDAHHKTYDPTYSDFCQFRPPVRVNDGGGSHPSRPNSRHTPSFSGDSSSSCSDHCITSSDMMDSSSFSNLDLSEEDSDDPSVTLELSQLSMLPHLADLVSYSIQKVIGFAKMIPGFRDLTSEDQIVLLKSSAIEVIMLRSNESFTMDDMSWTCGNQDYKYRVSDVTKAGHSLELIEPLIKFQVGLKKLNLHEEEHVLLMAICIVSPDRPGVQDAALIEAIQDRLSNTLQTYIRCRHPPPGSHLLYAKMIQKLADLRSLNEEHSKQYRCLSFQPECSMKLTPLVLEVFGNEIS
UniProt Q03181, sequence (Q03181 whole entry, looked up): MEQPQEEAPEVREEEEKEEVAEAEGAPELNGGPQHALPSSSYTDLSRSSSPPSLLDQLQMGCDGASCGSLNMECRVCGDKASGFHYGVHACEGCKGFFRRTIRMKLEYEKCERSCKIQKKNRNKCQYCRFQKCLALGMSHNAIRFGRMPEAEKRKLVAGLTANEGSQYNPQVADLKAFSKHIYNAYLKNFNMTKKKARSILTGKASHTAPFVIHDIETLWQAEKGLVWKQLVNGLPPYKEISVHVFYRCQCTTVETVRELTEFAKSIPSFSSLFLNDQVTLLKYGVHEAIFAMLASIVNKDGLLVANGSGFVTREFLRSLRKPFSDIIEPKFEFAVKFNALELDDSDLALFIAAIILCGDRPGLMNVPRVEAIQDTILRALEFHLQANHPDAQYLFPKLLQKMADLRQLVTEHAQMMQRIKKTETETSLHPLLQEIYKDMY
UniProt P19793, sequence (P19793 whole entry, looked up): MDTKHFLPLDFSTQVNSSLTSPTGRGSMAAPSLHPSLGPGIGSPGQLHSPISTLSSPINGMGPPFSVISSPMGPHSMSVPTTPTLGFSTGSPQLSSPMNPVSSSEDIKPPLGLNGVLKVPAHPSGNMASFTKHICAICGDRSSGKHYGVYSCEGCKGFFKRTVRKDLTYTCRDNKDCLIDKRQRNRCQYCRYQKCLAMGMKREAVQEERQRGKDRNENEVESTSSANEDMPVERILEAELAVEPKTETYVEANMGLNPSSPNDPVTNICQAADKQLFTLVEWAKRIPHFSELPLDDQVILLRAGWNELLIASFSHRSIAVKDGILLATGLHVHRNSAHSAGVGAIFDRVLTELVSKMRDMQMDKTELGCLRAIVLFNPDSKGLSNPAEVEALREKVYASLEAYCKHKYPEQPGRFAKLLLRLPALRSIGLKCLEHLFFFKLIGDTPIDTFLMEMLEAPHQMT

CCCCCC[C@@H](O)C/C=C\CCCCCCCC(=O)OC
inconclusive: activation [1] 13.8% [at 81.1 µM] | ratio activity, negative = inhibition [2] -8.33% [at 80.4 µM] | activity change, negative = inhibition [4] 4.85% [at 78.8 µM] | Potency [6] 0.0122 µM [inhibitor, full curve, poor fit] | Potency [7] 15.6 µM [falling, partial curve, poor fit] | Potency [8] 55.2 µM [rising, partial curve, poor fit]
inactive: Potency [3] | Potency [5]

CN1CCC(Nc2ncc3ncnc(Nc4ccc(F)c(Cl)c4)c3n2)CC1
active: Potency [9] 5.96 µM | Potency [10] 11.9 µM | Potency [3] 29.8 µM | Potency [13] 21.3 µM
inconclusive: Potency [1] 5.31 µM [rising, partial curve] | Potency [2] 33.5 µM [fluorescent, single point] | Potency [11] 7.5 µM [fluorescent, full curve] | Potency [4] 21.3 µM [fluorescent, partial curve] | Potency [12] 26.6 µM [cytotoxic, partial curve] | Potency [5] 23.9 µM [fluorescent, single point] | Potency [6] 23.7 µM [inhibitor, partial curve, poor fit] | activation [7] 15.2% [at 35.3 µM] | Potency [8] 8.49 µM [fluorescent, partial curve] | Potency [14] 8.49 µM [cytotoxic, partial curve, poor fit]
